What all share (test): two-hybrid; GAL4-AD (pGADT7) and GAL4-BD (pGBKT7) fusions in yeast strain PJ694a; growth on SD-TLH, 20 mM 3-AT
The target in experiment [1] is T1, MORC2 (yeast two-hybrid fusion) (Arabidopsis thaliana) (UniProt Q5FV35).
T1 sequence: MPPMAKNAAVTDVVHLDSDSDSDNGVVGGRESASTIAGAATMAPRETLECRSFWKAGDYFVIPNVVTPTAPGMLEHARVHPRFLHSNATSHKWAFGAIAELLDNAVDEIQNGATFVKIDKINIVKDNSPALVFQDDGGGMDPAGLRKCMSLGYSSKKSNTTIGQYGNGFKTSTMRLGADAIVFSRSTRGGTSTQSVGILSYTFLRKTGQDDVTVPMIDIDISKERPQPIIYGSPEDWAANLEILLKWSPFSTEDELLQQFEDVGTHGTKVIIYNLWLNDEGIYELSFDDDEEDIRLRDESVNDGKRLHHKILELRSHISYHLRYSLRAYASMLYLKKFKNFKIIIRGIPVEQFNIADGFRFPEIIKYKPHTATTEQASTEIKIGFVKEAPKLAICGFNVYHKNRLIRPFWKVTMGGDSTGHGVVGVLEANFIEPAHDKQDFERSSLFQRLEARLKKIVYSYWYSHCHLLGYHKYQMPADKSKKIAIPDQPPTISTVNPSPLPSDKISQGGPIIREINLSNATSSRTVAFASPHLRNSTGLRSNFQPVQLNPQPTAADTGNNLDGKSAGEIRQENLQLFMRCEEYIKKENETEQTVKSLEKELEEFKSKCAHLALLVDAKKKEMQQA

By UniProt entry, the sequences of proteins in these tests, tags left out.
UniProt Q94A79: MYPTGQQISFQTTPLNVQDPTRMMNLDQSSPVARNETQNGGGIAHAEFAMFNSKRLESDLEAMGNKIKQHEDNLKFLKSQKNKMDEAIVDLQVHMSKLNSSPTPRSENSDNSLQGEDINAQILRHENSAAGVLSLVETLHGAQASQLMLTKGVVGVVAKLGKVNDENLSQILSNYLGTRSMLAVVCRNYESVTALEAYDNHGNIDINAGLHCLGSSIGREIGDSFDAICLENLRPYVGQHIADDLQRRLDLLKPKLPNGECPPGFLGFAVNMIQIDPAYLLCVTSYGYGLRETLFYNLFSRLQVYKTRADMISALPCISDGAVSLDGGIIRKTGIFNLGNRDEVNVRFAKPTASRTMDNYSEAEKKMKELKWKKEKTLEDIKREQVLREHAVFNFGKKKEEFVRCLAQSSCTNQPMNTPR

Experiment [2] concerns the target DMS3 (yeast two-hybrid fusion) (Arabidopsis thaliana) (UniProt Q94A79).
The target in experiment [3] is T2, MORC6 (yeast two-hybrid fusion) (Arabidopsis thaliana) (UniProt Q56Y74).
T2 sequence: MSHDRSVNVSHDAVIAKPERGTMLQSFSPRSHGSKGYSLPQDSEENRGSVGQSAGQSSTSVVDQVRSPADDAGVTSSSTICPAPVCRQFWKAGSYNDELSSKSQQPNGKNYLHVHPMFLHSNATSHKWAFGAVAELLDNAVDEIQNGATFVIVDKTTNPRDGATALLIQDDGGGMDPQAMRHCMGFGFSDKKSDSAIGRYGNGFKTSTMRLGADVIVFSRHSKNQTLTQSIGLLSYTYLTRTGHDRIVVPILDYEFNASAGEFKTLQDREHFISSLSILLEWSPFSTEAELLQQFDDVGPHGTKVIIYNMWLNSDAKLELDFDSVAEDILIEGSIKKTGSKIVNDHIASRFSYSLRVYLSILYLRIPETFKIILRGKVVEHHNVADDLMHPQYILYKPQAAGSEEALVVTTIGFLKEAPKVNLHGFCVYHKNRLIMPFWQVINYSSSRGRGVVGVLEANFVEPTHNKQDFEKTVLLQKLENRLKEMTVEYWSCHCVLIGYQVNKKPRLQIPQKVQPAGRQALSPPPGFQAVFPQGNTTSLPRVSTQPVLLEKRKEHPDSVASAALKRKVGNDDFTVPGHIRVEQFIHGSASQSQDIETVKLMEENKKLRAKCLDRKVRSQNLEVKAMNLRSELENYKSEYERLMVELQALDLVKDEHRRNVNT

The target of experiment [4] is T3, MORC1 (yeast two-hybrid fusion) (Arabidopsis thaliana) (UniProt Q84WV6).
T3 sequence: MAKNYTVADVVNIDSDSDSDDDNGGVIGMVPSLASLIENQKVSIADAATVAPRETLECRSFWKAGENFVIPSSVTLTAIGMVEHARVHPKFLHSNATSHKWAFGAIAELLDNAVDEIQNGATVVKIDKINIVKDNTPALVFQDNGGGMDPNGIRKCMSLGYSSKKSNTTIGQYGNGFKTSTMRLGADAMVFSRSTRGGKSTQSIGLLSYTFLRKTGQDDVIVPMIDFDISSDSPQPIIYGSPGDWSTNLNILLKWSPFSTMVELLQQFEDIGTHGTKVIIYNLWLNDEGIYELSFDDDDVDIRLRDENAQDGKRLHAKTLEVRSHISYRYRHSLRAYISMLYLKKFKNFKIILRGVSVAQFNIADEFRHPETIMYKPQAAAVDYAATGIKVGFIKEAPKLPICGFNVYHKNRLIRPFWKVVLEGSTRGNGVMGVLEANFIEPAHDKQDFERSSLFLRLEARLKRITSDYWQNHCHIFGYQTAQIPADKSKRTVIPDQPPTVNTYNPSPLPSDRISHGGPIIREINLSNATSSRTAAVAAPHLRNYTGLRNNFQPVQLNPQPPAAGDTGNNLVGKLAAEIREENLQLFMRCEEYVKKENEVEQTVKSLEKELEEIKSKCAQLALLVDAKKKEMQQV

Results are given in words; binding and its absence hold for the method and conditions named. Some entries that bind do so weakly or less than the wild type. Where a sequence is shown, tags or fusion partners need not be part of it.

B1: SUVH2 (yeast two-hybrid fusion) (protein, UniProt O22781 1-651)
chain: MSTLLPFPDLNLMPDSQSSTAGTTAGDTVVTGKLEVKSEPIEEWQTPPSSTSDQSANTDLIAEFIRISELFRSAFKPLQVKGLDGVSVYGLDSGAIVAVPEKENRELIEPPPGFKDNRVSTVVVSPKFERPRELARIAILGHEQRKELRQVMKRTRMTYESLRIHLMAESMKNHVLGQGRRRRSDMAAAYIMRDRGLWLNYDKHIVGPVTGVEVGDIFFYRMELCVLGLHGQTQAGIDCLTAERSATGEPIATSIVVSGGYEDDEDTGDVLVYTGHGGQDHQHKQCDNQRLVGGNLGMERSMHYGIEVRVIRGIKYENSISSKVYVYDGLYKIVDWWFAVGKSGFGVFKFRLVRIEGQPMMGSAVMRFAQTLRNKPSMVRPTGYVSFDLSNKKENVPVFLYNDVDGDQEPRHYEYIAKAVFPPGIFGQGGISRTGCECKLSCTDDCLCARKNGGEFAYDDNGHLLKGKHVVFECGEFCTCGPSCKSRVTQKGLRNRLEVFRSKETGWGVRTLDLIEAGAFICEYAGVVVTRLQAEILSMNGDVMVYPGRFTDQWRNWGDLSQVYPDFVRPNYPSLPPLDFSMDVSRMRNVACYISHSKEPNVMVQFVLHDHNHLMFPRVMLFALENISPLAELSLDYGLADEVNGKLAICN
Take B1: the binding result in experiment [1] was “no binding”; in experiment [2] it was “binds”; in experiment [3], “no binding”.

B2: MORC6 (yeast two-hybrid fusion) (protein, UniProt Q56Y74 1-663)
chain: T2 sequence
Turning to B2, the binding entry in experiment [1] and in experiment [4] was “binds” in each case.

Source of the values: PMC3898904.
